In the supplement of paper PMC4967469:
Lines with a small IC50 respond at low doses; fits outside the tested doses are given as limits. AUC is the area under the same curve over the 256-fold range up to the top dose, as a fraction: 1 means no effect, lower means more sensitive. The top dose, if marked as inferred, comes from the curve model; the source does not state it.

Key:
Assay in all cases: Viability of human cancer cell lines after 72 h of drug (GDSC screen)
[1] = compound: CCN1CCC(n2cc(CNc3cc(Cl)c4ncc(C#N)c(Nc5ccc(F)c(Cl)c5)c4c3)nn2)CC1 [KIN001-266]; conditions: top dose 20 µM; top dose inferred
Experimental: (§1)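 Human cancer cell lines in 384-well plates, medium with 10% serum, drug for 72 h over a 256-fold dose range (nine 2-fold or five 4-fold steps up to the top dose). Adherent lines were fixed and stained with the nucleic acid dye Syto60, suspension lines read with resazurin; signal relative to control wells, capped at 0 and 100%. One two-parameter sigmoid per drug and line, fitted in a mixed model over all curves with the slope shared within a line.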

[2] = compound: O=C1/C(=C/c2cccs2)CC/C1=C\c1cccs1 [CCT007093]; conditions: top dose 6.6 µM; top dose inferred
Experimental: as §1

[3] = compound: C=CC(=O)N1CCc2ccc(-n3c(=O)ccc4cnc5ccc(-c6cnn(C)c6)cc5c43)cc21 [QL-XII-47]; conditions: top dose 10.24 µM; top dose inferred
Experimental: as §1

[4] = compound: COc1ccc(-c2cc3nccn3c(Nc3ncccc3C(N)=O)n2)cc1OC [BAY 61-3606]; conditions: top dose 8 µM; top dose inferred
Experimental: as §1

LB771-HNC (head and neck, adherent)
AUC [1]: 0.884
IC50 [1]: > 20 µM
AUC [2]: 0.962
IC50 [2]: > 6.6 µM
AUC [3]: 0.747
IC50 [3]: 4 µM
AUC [4]: 0.864
IC50 [4]: > 8 µM

SUIT-2 (pancreas, adherent)
AUC [1]: 0.763
IC50 [1]: 7.53 µM
AUC [2]: 0.981
IC50 [2]: > 6.6 µM
AUC [3]: 0.805
IC50 [3]: 5.46 µM
AUC [4]: 0.881
IC50 [4]: > 8 µM

QIMR-WIL (acute myeloid leukaemia, suspension)
AUC [1]: 0.884
IC50 [1]: > 20 µM
AUC [2]: 0.985
IC50 [2]: > 6.6 µM
AUC [3]: 0.38
IC50 [3]: 0.302 µM
AUC [4]: 0.537
IC50 [4]: 0.627 µM

RERF-LC-Sq1 (lung squamous cell carcinoma, adherent)
AUC [1]: 0.912
IC50 [1]: > 20 µM
AUC [2]: 0.945
IC50 [2]: > 6.6 µM
AUC [3]: 0.773
IC50 [3]: 6.03 µM
AUC [4]: 0.945
IC50 [4]: > 8 µM

SKN (uterus, adherent)
AUC [1]: 0.866
IC50 [1]: > 20 µM
AUC [2]: 0.976
IC50 [2]: > 6.6 µM
AUC [3]: 0.602
IC50 [3]: 1.29 µM
AUC [4]: 0.796
IC50 [4]: 4.65 µM

CAL-72 (osteosarcoma, adherent)
AUC [1]: 0.983
IC50 [1]: > 20 µM
AUC [2]: 0.984
IC50 [2]: > 6.6 µM
AUC [3]: 0.982
IC50 [3]: > 10.2 µM
AUC [4]: 0.98
IC50 [4]: > 8 µM

SW837 (large intestine, adherent)
AUC [1]: 0.895
IC50 [1]: > 20 µM
AUC [2]: 0.983
IC50 [2]: > 6.6 µM
AUC [3]: 0.829
IC50 [3]: 9.41 µM
AUC [4]: 0.765
IC50 [4]: 3.88 µM

LU-65 (large cell lung carcinoma, suspension)
AUC [1]: 0.863
IC50 [1]: > 20 µM
AUC [2]: 0.987
IC50 [2]: > 6.6 µM
AUC [3]: 0.827
IC50 [3]: 7.81 µM
AUC [4]: 0.709
IC50 [4]: 2.18 µM

M059J (glioma, adherent)
AUC [1]: 0.833
IC50 [1]: 14.5 µM
AUC [2]: 0.979
IC50 [2]: > 6.6 µM
AUC [3]: 0.447
IC50 [3]: 0.453 µM
AUC [4]: 0.78
IC50 [4]: 3.58 µM

SCH (stomach, adherent)
AUC [1]: 0.948
IC50 [1]: > 20 µM
AUC [2]: 0.949
IC50 [2]: > 6.6 µM
AUC [3]: 0.884
IC50 [3]: > 10.2 µM
AUC [4]: 0.988
IC50 [4]: > 8 µM

BE-13 (lymphoblastic leukaemia, suspension)
AUC [1]: 0.844
IC50 [1]: 13 µM
AUC [2]: 0.956
IC50 [2]: > 6.6 µM
AUC [3]: 0.723
IC50 [3]: 2.62 µM
AUC [4]: 0.787
IC50 [4]: 3.24 µM

OE19 (oesophagus, adherent)
AUC [1]: 0.928
IC50 [1]: > 20 µM
AUC [2]: 0.978
IC50 [2]: > 6.6 µM
AUC [3]: 0.986
IC50 [3]: > 10.2 µM
AUC [4]: 0.852
IC50 [4]: 7.52 µM

BICR22 (head and neck, adherent)
AUC [1]: 0.976
IC50 [1]: > 20 µM
AUC [2]: 0.968
IC50 [2]: > 6.6 µM
AUC [3]: 0.95
IC50 [3]: > 10.2 µM
AUC [4]: 0.983
IC50 [4]: > 8 µM

MDA-MB-453 (breast, adherent)
AUC [1]: 0.885
IC50 [1]: > 20 µM
AUC [2]: 0.966
IC50 [2]: > 6.6 µM
AUC [3]: 0.602
IC50 [3]: 1.26 µM
AUC [4]: 0.986
IC50 [4]: > 8 µM

ACHN (kidney, adherent)
AUC [1]: 0.889
IC50 [1]: > 20 µM
AUC [2]: 0.965
IC50 [2]: > 6.6 µM
AUC [3]: 0.748
IC50 [3]: 3.71 µM
AUC [4]: 0.659
IC50 [4]: 1.48 µM
